Laboratory results as given in article PMC12820563.
The other results are listed elsewhere or left out. The list includes weakly bound sequences.

These sequences were tested against T1, MBP-FoxP3dN (UniProt Q99JB6) (assay: PD-seq (MBP pull-down with sequencing)). Settings: 20 mM Tris-HCl pH 7.5, 100 mM NaCl, 1.5 mM MgCl2, 0.4 uM protein, 0.1 uM dsDNA library, 30 min, room temperature, amylose pull-down; high values mean tight binding; double strand, one strand shown.
T1 sequence: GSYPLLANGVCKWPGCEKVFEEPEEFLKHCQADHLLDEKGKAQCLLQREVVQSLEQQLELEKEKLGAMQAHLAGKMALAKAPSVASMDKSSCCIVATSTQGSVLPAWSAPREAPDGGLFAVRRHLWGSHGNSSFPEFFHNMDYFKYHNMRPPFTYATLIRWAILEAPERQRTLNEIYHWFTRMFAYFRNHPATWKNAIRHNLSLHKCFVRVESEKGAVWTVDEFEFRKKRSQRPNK

Row | Sequence | binding signal (RPM ratio (pull-down/input))
1 | GATGATTGTTCTCCCAGCTGATGAATTGAATTCTTCGAGTAAACAAATTTTCCTAATCTTTCTGTTCAAGCGCCATCTAC | 0.518
2 | GATGATTGTTCTCCCAGCTGATGAATTTCCTTAATCGAGTAAACAAATTTTCCTAATCTTTCTGTTCAAGCGCCATCTAC | 0.196
3 | GATGATTGTTCTCCCAGCTGATGAATTGAGAGCGTCGAGTAAACAAATTTTCCTAATCTTTCTGTTCAAGCGCCATCTAC | 0.44
4 | GATGATTGTTCTCCCAGCTGATGAATTTCAGATTTCGAGTAAACAAATTTTCCTAATCTTTCTGTTCAAGCGCCATCTAC | 0.296
5 | GATGATTGTTCTCCCAGCTGATGAATTTTTGTTTTCGAGTAAACAAATTTTCCTAATCTTTCTGTTCAAGCGCCATCTAC | 2.51
6 | GATGATTGTTCTCCCAGCTGATGAATTTTTAGCATCGAGTAAACAAATTTTCCTAATCTTTCTGTTCAAGCGCCATCTAC | 0.918
7 | GATGATTGTTCTCCCAGCTGATGAATTGACCCCCTCGAGTAAACAAATTTTCCTAATCTTTCTGTTCAAGCGCCATCTAC | 0.332
8 | GATGATTGTTCTCCCAGCTGATGAATTGCCACCATCGAGTAAACAAATTTTCCTAATCTTTCTGTTCAAGCGCCATCTAC | 1.87
9 | GATGATTGTTCTCCCAGCTGATGAATTATGTTGATCGAGTAAACAAATTTTCCTAATCTTTCTGTTCAAGCGCCATCTAC | 7.26
10 | GATGATTGTTCTCCCAGCTGATGAATTCCAGCGATCGAGTAAACAAATTTTCCTAATCTTTCTGTTCAAGCGCCATCTAC | 0.403
11 | GATGATTGTTCTCCCAGCTGATGAATTTCCCGTCTCGAGTAAACAAATTTTCCTAATCTTTCTGTTCAAGCGCCATCTAC | 0.262
12 | GATGATTGTTCTCCCAGCTGATGAATTTGGAAACTCGAGTAAACAAATTTTCCTAATCTTTCTGTTCAAGCGCCATCTAC | 0.626
13 | GATGATTGTTCTCCCAGCTGATGAATTAGGACAGTCGAGTAAACAAATTTTCCTAATCTTTCTGTTCAAGCGCCATCTAC | 0.408
14 | GATGATTGTTCTCCCAGCTGATGAATTGGTTCAATCGAGTAAACAAATTTTCCTAATCTTTCTGTTCAAGCGCCATCTAC | 0.283
15 | GATGATTGTTCTCCCAGCTGATGAATTGTGGTAGTCGAGTAAACAAATTTTCCTAATCTTTCTGTTCAAGCGCCATCTAC | 0.843
16 | GATGATTGTTCTCCCAGCTGATGAATTTTGTTATTCGAGTAAACAAATTTTCCTAATCTTTCTGTTCAAGCGCCATCTAC | 7.33

Row | Sequence | binding signal (RPM ratio (pull-down/input))
17 | GATGATTGTTCTCCCAGCTGATGAATTCATGTCATCGAGTAAACAAATTTTCCTAATCTTTCTGTTCAAGCGCCATCTAC | 0.861
18 | GATGATTGTTCTCCCAGCTGATGAATTCGCCACCTCGAGTAAACAAATTTTCCTAATCTTTCTGTTCAAGCGCCATCTAC | 1.41
19 | GATGATTGTTCTCCCAGCTGATGAATTCACTGTGTCGAGTAAACAAATTTTCCTAATCTTTCTGTTCAAGCGCCATCTAC | 0.632
20 | GATGATTGTTCTCCCAGCTGATGAATTCTCTTGATCGAGTAAACAAATTTTCCTAATCTTTCTGTTCAAGCGCCATCTAC | 0.265
21 | GATGATTGTTCTCCCAGCTGATGAATTCCATTAGTCGAGTAAACAAATTTTCCTAATCTTTCTGTTCAAGCGCCATCTAC | 0.595
22 | GATGATTGTTCTCCCAGCTGATGAATTTTACACCTCGAGTAAACAAATTTTCCTAATCTTTCTGTTCAAGCGCCATCTAC | 0.337
23 | GATGATTGTTCTCCCAGCTGATGAATTGCTCTTATCGAGTAAACAAATTTTCCTAATCTTTCTGTTCAAGCGCCATCTAC | 0.671
24 | GATGATTGTTCTCCCAGCTGATGAATTTTGGCGATCGAGTAAACAAATTTTCCTAATCTTTCTGTTCAAGCGCCATCTAC | 0.614
25 | GATGATTGTTCTCCCAGCTGATGAATTTGCAGTCTCGAGTAAACAAATTTTCCTAATCTTTCTGTTCAAGCGCCATCTAC | 1.24
26 | GATGATTGTTCTCCCAGCTGATGAATTCCCTCACTCGAGTAAACAAATTTTCCTAATCTTTCTGTTCAAGCGCCATCTAC | 0.304
27 | GATGATTGTTCTCCCAGCTGATGAATTTCGTGTATCGAGTAAACAAATTTTCCTAATCTTTCTGTTCAAGCGCCATCTAC | 1.91
28 | GATGATTGTTCTCCCAGCTGATGAATTGTCAGATTCGAGTAAACAAATTTTCCTAATCTTTCTGTTCAAGCGCCATCTAC | 0.303
29 | GATGATTGTTCTCCCAGCTGATGAATTCCGTTTGTCGAGTAAACAAATTTTCCTAATCTTTCTGTTCAAGCGCCATCTAC | 3.25
30 | GATGATTGTTCTCCCAGCTGATGAATTTCGCCGGTCGAGTAAACAAATTTTCCTAATCTTTCTGTTCAAGCGCCATCTAC | 0.652
31 | GATGATTGTTCTCCCAGCTGATGAATTCTATACCTCGAGTAAACAAATTTTCCTAATCTTTCTGTTCAAGCGCCATCTAC | 0.418
